# From the supplement of paper PMC8728848
# This is one part of the list.
# B1: Gal 9 (Homo sapiens), O00182 (protein)
# chain: MAFSGSQAPYLSPAVPFSGTIQGGLQDGLQITVNGTVLSSSGTRFAVNFQTGFSGNDIAFHFNPRFEDGGYVVCNTRQNGSWGPEERKTHMPFQKGMPFDLCFLVQSSDFKVMVNGILFVQYFHRVPFHRVDTISVNGSVQLSYISFQNPRTVPVQPAFSTVPFSQPVCFPPRPRGRRQKPPGVWPANPAPITQTVIHTVQSAPGQMFSTPAIPPMMYPHPAYPMPFITTILGGLYPSKSILLSGTVLPSAQRFHINLCSGNHIAFHLNPRFDENAVVRNTQIDNSWGSEERSLPRKMPFVRGQSFSVWILCEAHCLKVAVDGQHLFEYYHRLRNLPTINRLEVGGDIQLTHVQT
# Key:
# Assay in all cases: glycan array binding signal (z-score within array); higher = stronger binding
# Details in all cases: glycan notation: IUPAC condensed, linker removed
# [1] = target: Fuc(a1-2)Gal(b1-4)GlcNAc(b1-6)GalNAc
# Method in brief: (§1)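 The Consortium for Functional Glycomics database supplied 3228 glycan arrays, of which those lacking an available protein sequence were dropped. The binding signal, a within-array Z-score, was averaged across arrays of the same protein sequence and across linkers. Negative scores can be read as non-binding.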
# [2] = target: Fuc(a1-2)Gal(b1-4)GlcNAc6S
# Method in brief: as §1
# [3] = target: Fuc(a1-2)Gal(b1-4)[Fuc(a1-3)]GlcNAc
# Method in brief: as §1
# [4] = target: Fuc(a1-2)Gal(b1-4)[Fuc(a1-3)]GlcNAc(b1-2)Man(a1-3)[Fuc(a1-2)Gal(b1-4)[Fuc(a1-3)]GlcNAc(b1-2)Man(a1-6)]Man(b1-4)GlcNAc(b1-4)GlcNAc
# Method in brief: as §1
# [5] = target: Fuc(a1-2)Gal(b1-4)[Fuc(a1-3)]GlcNAc(b1-2)Man(a1-3)[Fuc(a1-2)Gal(b1-4)[Fuc(a1-3)]GlcNAc(b1-2)Man(a1-6)]Man(b1-4)GlcNAc(b1-4)[Fuc(a1-6)]GlcNAc
# Method in brief: as §1
# [6] = target: Fuc(a1-2)Gal(b1-4)[Fuc(a1-3)]GlcNAc(b1-2)[Fuc(a1-2)Gal(b1-4)[Fuc(a1-3)]GlcNAc(b1-4)]Man(a1-3)[Fuc(a1-2)Gal(b1-4)[Fuc(a1-3)]GlcNAc(b1-2)Man(a1-6)]Man(b1-4)GlcNAc(b1-4)GlcNAc
# Method in brief: as §1
# [7] = target: Fuc(a1-2)Gal(b1-4)[Fuc(a1-3)]GlcNAc(b1-3)Gal(b1-4)[Fuc(a1-3)]GlcNAc
# Method in brief: as §1
# [8] = target: Fuc(a1-2)Gal(b1-4)[Fuc(a1-3)]GlcNAc(b1-3)Gal(b1-4)[Fuc(a1-3)]GlcNAc(b1-3)Gal(b1-4)[Fuc(a1-3)]GlcNAc
# Method in brief: as §1
# [9] = target: Fuc(a1-2)Gal(b1-4)[Fuc(a1-3)]GlcNAc(b1-3)GalNAc
# Method in brief: as §1
# [10] = target: Fuc(a1-2)Gal(b1-4)[Fuc(a1-3)]GlcNAc(b1-3)[Neu5Ac(a2-6)Gal(b1-4)GlcNAc(b1-6)]Gal(b1-4)Glc
# Method in brief: as §1
# [11] = target: Fuc(a1-2)Gal3S(b1-4)GlcNAc
# Method in brief: as §1
# [12] = target: Fuc(a1-2)Gal6S(b1-3)GlcNAc
# Method in brief: as §1
# [13] = target: Fuc(a1-2)Gal6S(b1-3)GlcNAc6S
# Method in brief: as §1
# Fuc(a1-2)Gal6S(b1-4)Glc = target: Fuc(a1-2)Gal6S(b1-4)Glc
# Method in brief: as §1
# [14] = target: Fuc(a1-2)Gal6S(b1-4)Glc6S
# Method in brief: as §1
# [15] = target: Fuc(a1-2)Gal6S(b1-4)GlcNAc
# Method in brief: as §1
# Fuc(a1-2)[Gal(a1-3)]Gal = target: Fuc(a1-2)[Gal(a1-3)]Gal
# Method in brief: as §1
# [16] = target: Fuc(a1-2)[Gal(a1-3)]Gal(b1-3)GalNAc
# Method in brief: as §1
# [17] = target: Fuc(a1-2)[Gal(a1-3)]Gal(b1-3)GalNAc(b1-3)Gal(a1-4)Gal(b1-4)Glc
# Method in brief: as §1
# [18] = target: Fuc(a1-2)[Gal(a1-3)]Gal(b1-3)GlcNAc
# Method in brief: as §1
# [19] = target: Fuc(a1-2)[Gal(a1-3)]Gal(b1-3)GlcNAc(b1-2)Man(a1-3)[Fuc(a1-2)[Gal(a1-3)]Gal(b1-3)GlcNAc(b1-2)Man(a1-6)]Man(b1-4)GlcNAc(b1-4)GlcNAc
# Method in brief: as §1
# [20] = target: Fuc(a1-2)[Gal(a1-3)]Gal(b1-3)GlcNAc(b1-2)Man(a1-3)[Fuc(a1-2)[Gal(a1-3)]Gal(b1-3)GlcNAc(b1-2)Man(a1-6)]Man(b1-4)GlcNAc(b1-4)[Fuc(a1-6)]GlcNAc
# Method in brief: as §1
# [21] = target: Fuc(a1-2)[Gal(a1-3)]Gal(b1-3)GlcNAc(b1-3)GalNAc
# Method in brief: as §1
# [22] = target: Fuc(a1-2)[Gal(a1-3)]Gal(b1-3)GlcNAc(b1-6)GalNAc
# Method in brief: as §1
# [23] = target: Fuc(a1-2)[Gal(a1-3)]Gal(b1-4)Glc
# Method in brief: as §1
# [24] = target: Fuc(a1-2)[Gal(a1-3)]Gal(b1-4)GlcNAc
# Method in brief: as §1
# [25] = target: Fuc(a1-2)[Gal(a1-3)]Gal(b1-4)GlcNAc(b1-2)Man
# Method in brief: as §1
# [26] = target: Fuc(a1-2)[Gal(a1-3)]Gal(b1-4)GlcNAc(b1-2)Man(a1-3)[Fuc(a1-2)[Gal(a1-3)]Gal(b1-4)GlcNAc(b1-2)Man(a1-6)]Man(b1-4)GlcNAc(b1-4)GlcNAc
# Method in brief: as §1
# [27] = target: Fuc(a1-2)[Gal(a1-3)]Gal(b1-4)GlcNAc(b1-2)Man(a1-3)[Fuc(a1-2)[Gal(a1-3)]Gal(b1-4)GlcNAc(b1-2)Man(a1-6)]Man(b1-4)GlcNAc(b1-4)[Fuc(a1-6)]GlcNAc
# Method in brief: as §1
# [28] = target: Fuc(a1-2)[Gal(a1-3)]Gal(b1-4)GlcNAc(b1-3)GalNAc
# Method in brief: as §1
# [29] = target: Fuc(a1-2)[Gal(a1-3)]Gal(b1-4)GlcNAc(b1-6)GalNAc
# Method in brief: as §1
# [30] = target: Fuc(a1-2)[Gal(a1-3)]Gal(b1-4)[Fuc(a1-3)]Glc
# Method in brief: as §1
# [31] = target: Fuc(a1-2)[Gal(a1-3)]Gal(b1-4)[Fuc(a1-3)]GlcNAc
# Method in brief: as §1
# [32] = target: Fuc(a1-2)[Gal(a1-3)]Gal(b1-4)[Fuc(a1-3)]GlcNAc(b1-3)GalNAc
# Method in brief: as §1
# [33] = target: Fuc(a1-2)[Gal(a1-4)]Gal(b1-4)GlcNAc
# Method in brief: as §1
# [34] = target: Fuc(a1-2)[GalNAc(a1-3)]Gal
# Method in brief: as §1
# [35] = target: Fuc(a1-2)[GalNAc(a1-3)]Gal(b1-3)GalNAc(a1-3)[Fuc(a1-2)]Gal(b1-4)GlcNAc
# Method in brief: as §1
# [36] = target: Fuc(a1-2)[GalNAc(a1-3)]Gal(b1-3)GalNAc(b1-3)Gal(a1-4)Gal(b1-4)Glc
# Method in brief: as §1
binder,measurement,setting,value
B1,glycan array binding signal (z-score),[1],-0.283
same,glycan array binding signal (z-score),[2],0.06
same,glycan array binding signal (z-score),[3],-0.322
same,glycan array binding signal (z-score),[4],-0.263
same,glycan array binding signal (z-score),[5],-0.264
same,glycan array binding signal (z-score),[6],-0.276
same,glycan array binding signal (z-score),[7],-0.312
same,glycan array binding signal (z-score),[8],-0.311
same,glycan array binding signal (z-score),[9],-0.306
same,glycan array binding signal (z-score),[10],-0.308
same,glycan array binding signal (z-score),[11],-0.302
same,glycan array binding signal (z-score),[12],-0.276
same,glycan array binding signal (z-score),[13],-0.319
same,glycan array binding signal (z-score),Fuc(a1-2)Gal6S(b1-4)Glc,-0.31
same,glycan array binding signal (z-score),[14],-0.315
same,glycan array binding signal (z-score),[15],-0.331
same,glycan array binding signal (z-score),Fuc(a1-2)[Gal(a1-3)]Gal,-0.319
same,glycan array binding signal (z-score),[16],-0.278
same,glycan array binding signal (z-score),[17],-0.307
same,glycan array binding signal (z-score),[18],-0.036
same,glycan array binding signal (z-score),[19],0.637
same,glycan array binding signal (z-score),[20],0.01
same,glycan array binding signal (z-score),[21],-0.256
same,glycan array binding signal (z-score),[22],-0.233
same,glycan array binding signal (z-score),[23],-0.288
same,glycan array binding signal (z-score),[24],-0.178
same,glycan array binding signal (z-score),[25],-0.262
same,glycan array binding signal (z-score),[26],0.9
same,glycan array binding signal (z-score),[27],0.875
same,glycan array binding signal (z-score),[28],0.011
same,glycan array binding signal (z-score),[29],-0.307
same,glycan array binding signal (z-score),[30],-0.315
same,glycan array binding signal (z-score),[31],-0.316
same,glycan array binding signal (z-score),[32],-0.318
same,glycan array binding signal (z-score),[33],-0.319
same,glycan array binding signal (z-score),[34],-0.315
same,glycan array binding signal (z-score),[35],-0.317
same,glycan array binding signal (z-score),[36],-0.221
